Results taken from PubChem BioAssay AID1458 (National Center for Advancing Translational Sciences (NCATS), 2008).
About 5,900 (2.8%) of roughly 210,000 compounds were called active. The inconclusive results got no clear call from the source; some entries with a clear call stand among them for comparison. Calls come from the whole dose curve; as a rule, active = well fitted activation curve with a large enough effect; inconclusive = small, poorly fitted or top-dose-only effect; inactive = no such curve, though single readings can be large or run the other way. Where the call is inconclusive, the potency comes from a doubtful curve fit.

Assay: qHTS Assay for Enhancers of SMN2 Splice Variant Expression; note: nearly all actives have a fitted effect of over 55% in size; for activity change, positive = activation: % of control where 0% means no effect
Conditions: HEK293 SMN2-luciferase splicing reporter, luminescence, 30-36 h; activity change, positive = activation: at 46.1 µM (top of the series)
Summary of the method: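 HEK293 cells carry an SMN2 […]–luciferase reporter in which exon 7 inclusion puts luciferase in frame. Cells were plated 10-12 h before compound addition, then incubated 30-36 h at 37C. ONE-Glo luminescence was read; sodium butyrate at 4.5 mM final served as control.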
Potency is the fitted concentration of half-maximal effect; tags give direction and shape of the fitted curve.

SMILES	Potency	activity change, positive = activation
COc1ccc(-c2nn(C)c(=O)c3ccccc23)cc1CNS(C)(=O)=O	inconclusive: 1.41 µM [activator, full curve]	
COc1ccc(-c2nnc(SC(C)C(=O)Nc3nccs3)n2-c2ccccc2)cc1OC (stereo not drawn)	inconclusive: 0.0045 µM [activator, full curve, poor fit]	
Fc1cccc(CSc2nc3ccncc3[nH]2)c1	active: 11.2 µM	
CCN(CC)c1ccc(NC(=O)c2ccc(Br)o2)c(C)c1		inactive: 11.6%
COc1cc(-c2noc(-c3ccco3)n2)cc(OC)c1OC		inactive: -8.87%
Cc1nn(-c2ccccc2)c(N2CCCC2)c1/C=C1\N=C(c2ccc(F)cc2)OC1=O		inactive: -41.4%
CCc1ccc2oc(C(=O)NCc3ccc(S(N)(=O)=O)cc3)c(C)c2c1		inactive: -7.08%
CC(/C=C/c1ccccc1)=N\Nc1ccccc1[N+](=O)[O-]		inactive: 19%
Nc1nnc(-c2cccnc2)s1	inconclusive: 0.0316 µM [activator, full curve, poor fit]	
COc1cccc(NC(=O)Cc2ccccc2)c1		inactive: -17.7%
COc1ccc2nc(NC(=O)c3cccc(-c4cc5ccccc5oc4=O)c3)sc2c1	inconclusive: 15.8 µM [activator, single point]	
CCCCCCSc1nsc(NC(=O)CC(C)C)n1	inconclusive: 35.5 µM [activator, single point]	
O=C(O)CCc1ccc(-c2ccccc2)n1NC(=O)c1ccco1	inconclusive: 35.5 µM [activator, partial curve, poor fit]	
CC(=O)N1N=C(c2ccc(C)o2)CC1c1ccc(Br)cc1 (stereo not drawn)	inconclusive: 35.5 µM [activator, single point]	
O=C(c1cc(-c2cccs2)on1)N1CCCc2ccccc21		inactive: 21.5%
CC(C)(C)C1CCc2c(sc(NC(=O)c3ccc(Cl)cc3)c2C(=O)NCc2ccco2)C1 (stereo not drawn)		inactive: -5.94%
CCCc1cc(C(=O)Nc2c(C)nn(Cc3c(Cl)cccc3Cl)c2C)no1	inconclusive: 35.5 µM [activator, single point]	
Cc1cc2c(C)nc(-c3ccccc3)nc2o1	active: 28.2 µM	
CCc1nn(CC(=O)Nc2ccc(N(CC)CC)cc2C)c(=O)c2cc3sccc3n12		inactive: -13%
Cc1ccccc1C(=O)NNC(=O)Cc1ccccc1	inconclusive: 7.94 µM [activator, partial curve]	
COc1ccc2nc3cccc(OC)c3nc2c1	inconclusive: 20 µM [activator, single point]	
COc1cccc(/C(C)=N/Nc2ncc(Cl)cc2Cl)c1	inconclusive: 15.8 µM [activator, partial curve, poor fit]	
CC1(C)OC(=O)C(=CNc2ccccc2F)C(=O)O1	inconclusive: 0.0063 µM [activator, full curve, poor fit]	
CC(=O)OC1CC2C(C)(C)C(=O)C=C[C@]2(C)C2CC[C@@]3(C)C(c4ccoc4)OC(=O)C4O[C@@]43[C@]12C (stereo partly drawn)		inactive: -54.1%
CC(OC(=O)c1ccc2ccccc2n1)C(=O)Nc1ccc(N2CCOCC2)cc1 (stereo not drawn)	inconclusive: 39.8 µM [activator, partial curve, poor fit]	

SMILES	Potency	activity change, positive = activation
CN(C)c1ccc(/C=C(\C#N)c2nc(-c3ccc(Cl)c(Cl)c3)cs2)cc1		inactive: 7.1%
CCN(CC)C(=O)CSc1nc2ccc(NC(=O)CSc3nnc(COc4ccccc4C)n3C)cc2s1		inactive: -9.19%
Clc1ccc(NCn2cncn2)nc1	inconclusive: 31.6 µM [activator, single point]	
CN(C)/C=C/C(=O)c1ccc(-c2ccc(Cl)cc2Cl)o1	inconclusive: 14.1 µM [activator, partial curve]	
CCCCn1c(SCC(=O)NCc2ccco2)nc2ccccc2c1=O		inactive: -13.9%
N#C/C(=C/c1ccc(O)c(O)c1)C(=O)OC/C=C/c1ccccc1	inconclusive: 7.94 µM [activator, partial curve, poor fit]	
O=C(Nc1cccc(-c2cn3ccccc3n2)c1)c1cc2ccccc2oc1=O	inconclusive: 22.4 µM [activator, single point]	
CCN1C(=O)/C(=C/C=C2\C=CN(CC)c3ccccc32)SC1=S		inactive: 9.13%
COc1cc(C(=O)Nc2ccc(C(C)=O)cc2)c(Br)c(OC)c1OC	inconclusive: 20 µM [activator, partial curve]	
COc1ccc(-n2c(C)cc(C(=O)Cn3nc(C(=O)O)c4ccccc4c3=O)c2C)cc1		inactive: -27.8%
CCOc1ccc(NC(=O)c2cnc(Nc3ccccc3OC)c3ccccc23)cc1	inconclusive: 2.82 µM [activator, full curve, poor fit]	
CCC(=O)N1CCc2cc(Br)cc(S(=O)(=O)N3CCCC(C(=O)Nc4cccc(F)c4)C3)c21 (stereo not drawn)		inactive: -7.63%
O=C(NNC(=O)c1ccc(Cl)cc1Cl)c1ccncc1	inconclusive: 20 µM [activator, single point]	
COc1ccc(N/C(C)=C2/C(=O)C(=O)N(CCO)C2c2ccc([N+](=O)[O-])cc2)cc1 (stereo not drawn)	inconclusive: 0.0008 µM [activator, full curve, poor fit]	
O=C(NCc1ccco1)c1sc2cc(F)ccc2c1Cl	active: 12.6 µM	
CCOC(=O)C1=NOC2C(=O)N(c3ccc(Cl)cc3Cl)C(=O)C12 (stereo not drawn)	inconclusive: 31.6 µM [activator, single point]	
Cc1ccc(NC(=O)C(=O)NC2CCCCC2)cc1	active: 5.01 µM	
Cc1noc(C(=O)NCc2ccco2)c1Cl	inconclusive: 35.5 µM [activator, single point]	
C/C(=N\NS(=O)(=O)c1ccc(Cl)cc1)c1ccc(NC(=O)c2ccco2)cc1	inconclusive: 15.8 µM [activator, partial curve, poor fit]	
Cc1ccc(S(=O)(=O)c2cc3c(=O)n4cccc(C)c4nc3n(CC3CCCO3)c2=N)cc1 (stereo not drawn)	inconclusive: 20 µM [activator, partial curve, poor fit]	
COc1ccc(-c2cn3ccsc3n2)cc1	active: 15.8 µM	
COc1cccc(NC(=O)C(=O)NCc2ccncc2)c1	active: 12.6 µM	
CCN1CCCC1CNC(=O)C(=O)Nc1ccccc1 (stereo not drawn)	inconclusive: 10 µM [activator, partial curve]	
O=C(NCCSc1c[nH]c2ccccc12)c1ccc(Cl)cc1		inactive: -17.2%
Cc1ccccc1-c1nnc(SCc2ccc(F)cc2)o1		inactive: -9.05%

SMILES	Potency	activity change, positive = activation
CCOc1cc(C)nc(NCc2ccccc2)n1	inconclusive: 17.8 µM [activator, single point]	
N#C/C(=C\Nc1ccccc1SC(F)(F)F)c1nc(-c2ccccc2)cs1	inconclusive: 35.5 µM [activator, single point]	
CC(=O)Nc1ccc(Nc2ncnc3c2cnn3-c2cccc(C)c2)cc1	inconclusive: 17.8 µM [activator, partial curve, poor fit]	
COc1ccc(/C=N/NC(=O)CC(=O)NCCc2ccccc2)cc1OC	inconclusive: 4.47 µM [activator, partial curve]	
CC(=NC1CCCC1)c1c(C)[nH]n(-c2nc3ccccc3s2)c1=O	inconclusive: 31.6 µM [activator, single point]	
CC(C)(C)NC(=O)CSc1nnc(-c2ccncc2)n1Cc1ccccc1	inconclusive: 12.6 µM [activator, partial curve, poor fit]	
O=[N+]([O-])c1ccc(Nc2ccc3ccccc3c2)nc1	inconclusive: 15.8 µM [activator, single point]	
Cc1ccc2oc(-c3ccccc3)nc2c1	inconclusive: 22.4 µM [activator, partial curve, poor fit]	
Cc1oc(-c2cccc(Cl)c2)nc1CSc1nc2c(c(=O)[nH]1)CCC2	inconclusive: 6.31 µM [activator, single point]	
COc1ccccc1NC(=O)CC1Sc2ccc(C(F)(F)F)cc2NC1=O (stereo not drawn)	inconclusive: 5.01 µM [activator, single point]	
CCc1noc(C)c1C(=O)Nc1ncc(C)s1	inconclusive: 0.0045 µM [activator, full curve, poor fit]	
CC(C)N=c1scc(-c2cccs2)n1/N=C/c1ccc(O)c(O)c1O		inactive: 3.42% [at 1.84 µM]
CCOc1ccc(OCc2ccc(C(=O)N(CC)CC)cc2)cc1		inactive: 23.9%
COC(=O)c1ccc(/C=N/Nc2nc3ccccc3[nH]2)cc1	inconclusive: 14.1 µM [activator, partial curve]	
CCCn1c(C)nc2c(NC3CCN(Cc4ccccc4)CC3)nc(C)nc21		inactive: -11.6%
COc1ccc(N(CC(=O)Nc2cc(OC)cc(OC)c2)S(=O)(=O)c2c(C)noc2C)cc1		inactive: -30.3%
CCOc1ccc2[nH]c(=O)c(CN(Cc3ccccc3OC)C(=O)c3ccccc3)cc2c1	inconclusive: 0.01 µM [activator, full curve, poor fit]	
CC(=O)Oc1ccc(C(=O)Nc2ccccc2C(=O)NCC(C)C)cc1	inconclusive: 1.41 µM [activator, partial curve, poor fit]	
Fc1ccc2nc(N3CCCC3)sc2c1	active: 12.6 µM	
Cc1cccc(OCCC(=O)Nc2ccc(C)c(S(=O)(=O)N3CCCCC3)c2)c1		inactive: -45.9%
CCOC(=O)c1c(-c2ccccc2)cn2c(C)cc(C)nc12	active: 11.2 µM	
O=C(CCN1CCCC1)Nc1cccc(Br)c1	inconclusive: 0.0501 µM [activator, full curve, poor fit]	
COCCCn1c(=NC(=O)c2ccncc2)c(C#N)cc2c(=O)n3cccc(C)c3nc21	inconclusive: 15.8 µM [activator, partial curve]	
